# In PubChem BioAssay AID1461 (National Center for Advancing Translational Sciences (NCATS), 2008):
# Among all 220,000 compounds or so, about 2,300 (1%) were called active. This list was built around the results that the source calls inconclusive (neither active nor inactive); the mix of calls is not that of the screen. Calls follow the shape of the dose curve; as a rule, active = well fitted inhibition curve with a large enough effect; inconclusive = small, poorly fitted or top-dose-only effect, or effect the other way; inactive = no such curve, though single readings can be large or run the other way. Where the call is inconclusive, the potency comes from a doubtful curve fit.
# Molecular target: Neuropeptide S receptor (Homo sapiens) (UniProt Q6W5P4)
# Chain of UniProt Q6W5P4 (Q6W5P4 whole entry, looked up): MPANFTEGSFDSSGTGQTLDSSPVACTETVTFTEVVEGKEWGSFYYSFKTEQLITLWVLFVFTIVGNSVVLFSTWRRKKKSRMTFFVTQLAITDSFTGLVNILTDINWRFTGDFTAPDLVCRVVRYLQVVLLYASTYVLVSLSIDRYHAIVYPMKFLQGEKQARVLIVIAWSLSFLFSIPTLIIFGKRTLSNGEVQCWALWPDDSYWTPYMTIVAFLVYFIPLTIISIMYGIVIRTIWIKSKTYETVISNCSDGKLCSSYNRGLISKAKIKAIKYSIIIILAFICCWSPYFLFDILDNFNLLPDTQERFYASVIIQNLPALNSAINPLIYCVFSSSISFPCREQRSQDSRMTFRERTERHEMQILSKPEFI
# Test: qHTS Assay for Antagonists of the Neuropeptide S Receptor: cAMP Signal Transduction; also: nearly all actives have a fitted effect of over 50% in size
# Conditions: CHO-NPSR cells, cAMP TR-FRET, antagonist mode; activity change, negative = inhibition: at 38.3 µM (top of the series) unless noted
# % is scaled to controls: 0 for no effect and ±100 for the full control effect; potency is read from the fitted curve at half-maximal effect; tags tell the direction and shape of the fitted curve.
SMILES,Potency,"activity change, negative = inhibition"
CN(Cc1ccccc1)c1nc(-c2ccc([N+](=O)[O-])cc2)nc2ccccc12,"inconclusive: 3.16 µM [inhibitor, partial curve]",
O=C(/C=C/c1ccc(-c2ccccc2[N+](=O)[O-])o1)c1ccco1,"inconclusive: 25.1 µM [inhibitor, single point]",
Cc1cccc2sc(NC(=O)C3CCCO3)nc12 (centres undefined),,inactive: 1.05% [at 46.1 µM]
Cc1ccc(C(=O)Nc2ccccc2N2CCN(C(=O)C(C)C)CC2)cc1C,"inconclusive: 12.6 µM [inhibitor, partial curve, poor fit]",
CCc1cc(=O)oc2cc(OCC(=O)O)c(Cl)cc12,,inactive: -4.46% [at 46.1 µM]
Cc1sc2ncnc(NCC3(N4CCOCC4)CCCCC3)c2c1C,"inconclusive: 25.1 µM [inhibitor, single point]",
CCOC(=O)c1sc2nc(-c3ccco3)c3c(c2c1N)CC(C)(C)OC3,active: 10 µM,
O=C(NN=C1CCCC1)c1[nH]c2ccc(Cl)cc2c1-c1ccccc1,"inconclusive: 12.6 µM [activator, single point]",
CCC(Sc1nc(-c2ccccc2)c(C#N)c(=O)[nH]1)C(=O)Nc1cc(C)on1 (centres undefined),"inconclusive: 12.6 µM [activator, partial curve]",
CCCOc1cccc(C(=O)Nc2cccc(NC(=O)c3ccco3)c2)c1,"inconclusive: 10 µM [inhibitor, partial curve]",
CCCn1nc(Oc2nc(NCC)nc(NCC)n2)ccc1=O,,inactive: -3.4% [at 46.1 µM]
CC(C)C(=O)Nc1sc2c(c1C#N)CCCCC2,,inactive: 7.11% [at 46.1 µM]
Cc1cc(NC(=O)NC2(C(F)(F)F)Oc3ccc(Cl)cc3O2)no1 (centres undefined),,inactive: -13.2%
Oc1ccccc1C1=Nc2ncnn2C(c2ccc(F)cc2)C1 (centres undefined),"inconclusive: 7.94 µM [inhibitor, partial curve, poor fit]",
CC(=O)Nc1cccc(/C(C)=N/NC(=O)c2ccc(O)cc2)c1,,inactive: 0.767%
CCOc1ccc(-c2nc(CN(Cc3ccccc3)C[C@@H]3CCC(=O)N3)c(C)o2)cc1,"inconclusive: 12.6 µM [activator, single point]",
CC1(C)C2CCC(C2)C1(C)NC(=O)C[N+](C)(C)C (centres undefined),"inconclusive: 12.6 µM [activator, single point]",
CCOC(=O)c1ccc(N2CCCCC2)c(NS(=O)(=O)c2cccc(C(F)(F)F)c2)c1,"inconclusive: 10 µM [activator, partial curve]",
CCOC(=O)CNC(=O)CSc1nc2ncc(Br)cc2[nH]1,"inconclusive: 5.01 µM [inhibitor, single point]",
O=C(O)CN1C(=O)/C(=C/c2ccc(N3CCCCC3)o2)SC1=S,,inactive: 17.5%
COC(=O)c1c(NC(=O)CC2SCC(C(=O)OC)NC2=O)sc2c1CCCC2 (centres undefined),"inconclusive: 10 µM [inhibitor, single point]",
COc1ccc(OC)c(NC(=O)CN(c2ccc(C)cc2)S(=O)(=O)c2c(C)noc2C)c1,"inconclusive: 10 µM [inhibitor, single point]",
CCc1ccc(OCC(=O)NC(NC(=S)Nc2ccc(Cl)cc2)C(Cl)(Cl)Cl)cc1 (centres undefined),"inconclusive: 12.6 µM [inhibitor, single point]",

SMILES,Potency,"activity change, negative = inhibition"
N#Cc1ccc(Oc2ccc(-c3cnc4ccccc4n3)cc2)cc1C#N,"inconclusive: 20 µM [inhibitor, single point]",
Cc1cccc(-c2nnc(NC(=O)c3cccs3)s2)c1,,inactive: -6.15%
O=C(N/C(=C/c1ccc(Cl)cc1)C(=O)N1CCCC1)c1ccccc1,,inactive: 2.84%
CC(=O)n1c(Cl)c(NC(=O)CCl)c2ccccc21,"inconclusive: 10 µM [inhibitor, single point]",
CCOC(=O)c1cnn(-c2ncnc3sc(CC)cc23)c1N,"inconclusive: 10 µM [inhibitor, partial curve]",
COc1ccc(Cn2nnnc2C(c2cc3ccc(OC)cc3[nH]c2=O)N2CCC(C)CC2)cc1 (centres undefined),"inconclusive: 10 µM [inhibitor, single point]",
CCOC(=O)Cc1csc(NC(=O)c2cccs2)n1,"inconclusive: 3.16 µM [inhibitor, single point]",
Fc1ccc(CSc2nc3ccccc3[nH]2)c2ccccc12,"inconclusive: 12.6 µM [inhibitor, single point]",
Clc1ccc(CO/N=C/c2c(-c3ccccc3)nc3n2CCS3)c(Cl)c1,"inconclusive: 10 µM [inhibitor, single point]",
Cc1nonc1NC(=O)CSc1nc(C23CC4CC(CC(C4)C2)C3)nc2ccccc12,"inconclusive: 12.6 µM [inhibitor, single point]",
Cc1ccc(C(=S)N2CCN(Cc3ccccc3)CC2)s1,,inactive: -16.5%
COC(=O)CCc1nc2ccccc2[nH]c1=O,,inactive: -0.0001% [at 46.1 µM]
CCOC(=O)Nc1ccc(NS(=O)(=O)c2ccc(C)cc2)cc1,,inactive: -15.1% [at 46.1 µM]
COc1ccc(NC(=O)CSc2nnc(C)n2Cc2ccccc2)cc1,"inconclusive: 3.16 µM [inhibitor, single point]",
Cc1c(C#N)c(N=CN(C)C)c(C(=O)c2ccc(Br)cc2)n1-c1ccc(Cl)cc1,"inconclusive: 12.6 µM [inhibitor, single point]",
CCOC(=O)c1c(NC(=O)CSc2nnc(-c3ccc(C)cc3)o2)sc(C(C)=O)c1C,"inconclusive: 25.1 µM [inhibitor, single point]",
COc1ccc([C@H]2[C@H](C(=O)OC(C)(C)C)N3N=Cc4ccccc4C3C23C(=O)c2ccccc2C3=O)cc1OC (some centres undefined),active: 7.94 µM,
NNC(=O)CNC(=O)CNS(=O)(=O)c1ccccc1,"inconclusive: 5.01 µM [inhibitor, single point]",
CCOC(=O)C1(CCOc2ccccc2)CCN(Cc2ccc3nonc3c2)CC1,"inconclusive: 10 µM [activator, single point]",
CCOC(=O)C1=C(C)N2C(=C(C#N)[C@@H]1c1ccc(C(=O)OC)cc1)SC[C@@]2(O)C(C)(C)C,"inconclusive: 12.6 µM [inhibitor, single point]",
CCc1ccc(Cn2nnc(C(=O)Nc3ccc(OC)cc3OC)c2N)cc1,,inactive: -5.68% [at 46.1 µM]
O=c1c(C(c2ccccc2)c2c(O)sc3ccccc3c2=O)c(O)sc2ccccc12,active: 10 µM,
COc1ccc(CS(=O)(=O)/C(Cl)=C(/Cl)C(=O)Nc2ccc(OC)nc2)cc1,active: 6.31 µM,

SMILES,Potency,"activity change, negative = inhibition"
CCn1c(SCC(=O)c2ccc(Br)cc2)nnc1C(C)NC(=O)Cc1ccc(OC)cc1 (centres undefined),,inactive: -1.93% [at 46.1 µM]
Cc1cccc(N(Cc2cc3cc(C)ccc3[nH]c2=O)C(=O)c2cccs2)c1,"inconclusive: 25.1 µM [inhibitor, single point]",
CC1C(=O)NN=C1C(=O)N/N=C\C(Br)=C\c1ccccc1 (centres undefined),,inactive: -28.2%
CCOC(=O)C1=C(C)NC(C)=C(C(=O)OC)C1c1cccc([N+](=O)[O-])c1 (centres undefined),,inconclusive: -37.1% [inhibitor] [at 46.1 µM]
CC1(C)CC(=O)C2=C(C1)OC(N)=C(C#N)C21CCN(Cc2ccccc2)CC1,"inconclusive: 12.6 µM [inhibitor, single point]",
Nc1nonc1-n1nnc(C(=O)N/N=C/c2ccc(Br)cc2)c1CSC1=NCCS1,"inconclusive: 12.6 µM [inhibitor, single point]",
O=C(N/N=C/c1c[nH]c2ccccc12)C1CC1(c1ccccc1)c1ccccc1 (centres undefined),"inconclusive: 10 µM [inhibitor, single point]",
O=C(CSc1nc(N2CCCCC2)nc(N2CCCCC2)n1)c1ccccc1,"inconclusive: 10 µM [inhibitor, single point]",
CSc1nc(SCCN(C)C)c2c3c(sc2n1)COC(C)(C)C3,"inconclusive: 15.8 µM [activator, single point]",
NC(=O)c1ccsc1NC(=O)c1nc(-c2ccccc2)n(-c2ccccc2)n1,"inconclusive: 10 µM [inhibitor, single point]",
N#Cc1c(Nc2ccccc2C(F)(F)F)s[nH]c1=O,"inconclusive: 25.1 µM [activator, single point]",
Cc1ccc(S(=O)(=O)N2CCCC(C(=O)N(Cc3cccs3)C3CC3)C2)cc1 (centres undefined),"inconclusive: 12.6 µM [inhibitor, partial curve]",
Cc1cc(N2CCOCC2)nc2ccc(NC(=O)CCC(=O)N3CCCC(C)C3)cc12 (centres undefined),"inconclusive: 12.6 µM [inhibitor, single point]",
COc1ccc(-c2cc(C(=O)Nc3cc(C)nn3-c3ccccc3)no2)cc1,"inconclusive: 31.6 µM [inhibitor, single point]",
COc1ccc(NC(=O)COC(=O)/C=C/C(=O)OCC(=O)Nc2ccc(OC)c(Cl)c2)cc1Cl,,inactive: 0.39%
CC(=O)N1CCc2cc(C(=O)CN3CCN(c4ccccc4F)CC3)ccc21,,inactive: -7.2% [at 46.1 µM]
CC(=O)O[C@]1(C(C)=O)CC[C@H]2C3C=C(Cl)C4=CC(=O)[C@@H]5C[C@H]5[C@]4(C)C3CC[C@@]21C (some centres undefined),active: 12.6 µM,
CCn1c(=O)cc(SCC(=O)NCCCN2CCN(c3ccc(F)cc3)CC2)c2ccccc21,"inconclusive: 7.94 µM [inhibitor, partial curve, poor fit]",
CCOC(=O)CNc1ccc2c(c1)OCO2,,inactive: -5.75% [at 46.1 µM]
Cc1cc(C)c2cc(CN(CC3CCCO3)S(=O)(=O)c3ccc4c(c3)OCCO4)c(=O)[nH]c2c1 (centres undefined),"inconclusive: 10 µM [inhibitor, partial curve]",
O=C(N/N=C/c1ccc(-c2cccc(C(F)(F)F)c2)o1)c1ccccc1Br,,inactive: -26.6% [at 46.1 µM]
O=C(CSc1ncn(-c2ccccc2)n1)Nc1nc2ccccc2s1,,inactive: -18.5% [at 46.1 µM]
Cc1cccc(OCCn2c(NC(=O)c3ccco3)nc3ccccc32)c1,"inconclusive: 12.6 µM [inhibitor, single point]",
